Experimental data: the supplement of paper PMC11880418
Structures can show the parent of a compound that is named as a salt. The list shows a part of the results. The data scatter; read single values as rough.

Assays:
Assay in all cases: ALDHbr (CSC) cell proportion score relative to DMSO vehicle (ratio to DMSO); breast (SUM159) / gastric (MKN45) / pancreatic (PANC1) / colon cancer lines; ALDHbr cells have high ALDH activity and are rich in cancer stem cells (CSC); higher = more CSC (ALDHbr) cells remaining
Conditions in all cases: 10 µM; 72 h
[1] = system: MKN45
[2] = system: PANC1
[3] = system: SUM159
[4] = system: T84
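Note: High-content imaging of ALDEFLUOR-stained cells with Hoechst-labelled nuclei in 384-well plates, triplicate wells, scored as Z-score against 0.1% DMSO vehicle, negative meaning fewer ALDHbr cells.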

Compound | ALDHbr [1] | ALDHbr [2] | ALDHbr [3] | ALDHbr [4]
C(=C\c1ccccc1)/CN1CCN(C(c2ccccc2)c2ccccc2)CC1 [Cinnarizine] | 0.757 | 0.803 | 1.19 | 0.99
CO/N=C(\C(=O)N[C@@H]1C(=O)N2C(C(=O)O)=C(COC(N)=O)CS[C@H]12)c1ccco1 [Cefuroxime sodium salt] | 1.02 | 0.947 | 0.69 | 1.06
CCOC1O[C@H]([C@@H](COCc2ccccc2)OCc2ccccc2)[C@H](OCc2ccccc2)[C@H]1O (stereo partly drawn) [Tribenoside] | 0.451 | 0.906 | 0.787 | 0.727
CCC(=O)[C@@]1(C)[C@H](C)C[C@H]2[C@@H]3CCC4=CC(=O)C=C[C@]4(C)[C@H]3[C@@H](O)C[C@@]21C [Rimexolone] | 1.18 | 0.752 | 1.56 | 0.91
C=CCN1CCCC1CNC(=O)c1cc2nn[nH]c2cc1OC (stereo not drawn) [Alizapride hydrochloride] | 1.1 | 1.02 | 1.08 | 1.03
CCN(CC)CCNC(=O)c1cc(Cl)c(N)cc1OC [Metoclopramide monohydrochloride] | 1.05 | 0.952 | 0.872 | 0.997
COc1cc(-c2ccc(=O)[nH]n2)ccc1OC(F)F [Zardaverine] | 1.01 | 0.705 | 1.25 | 0.902
